Assay results from the supplement of paper PMC12217912.
This is one part of the list. The full chains were built here from the parent and the listed change. Inactive controls read about 0.05.

B1: TEV protease; numbered along this chain (parent)
chain: MGESLFKGPRDYNPISSSICHLTNESDGHTTSLYGIGFGPFIITNKHLFRRNNGTLVVQSLHGVFKVKDTTTLQQHLVDGRDMIIIRMPKDFPPFPQKLKFREPQREERICLVTTNFQTKSMSSMVSDTSCTFPSGDGIFWKHWIQTKDGQCGSPLVSTRDGFIVGIHSASNFTNTNNYFTSVPKNFMELLTNQEAQQWVSGWRLNADSVLWGGHKVFMVKPEEPFQPVKEATQL

Variants of: B1
Experiment: raw area under fraction-flipped curve 0-4 h after induction (AUC4h, not background-subtracted), DNA-recorder readout of cleavage of the substrate (dimensionless); higher = more cleavage of the substrate by the protease variant
Settings: temperature: 34 °C; time window: 0-4 h after rhamnose induction
Experimental: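 In vivo DNA recorder in E. coli TOP10(DE3) ΔrhaA at 34 °C. Each TEVp single-site mutant (parent TEVp 0) is paired with a single-site variant of the 7-mer TEVs (canonical ENLYFQ|S). The substrate sits between flexible linkers in a Bxb1-sfGFP-TEVs-SsrA fusion, so cleavage stabilises Bxb1 and speeds flipping of a recombination array, read by NGS. The value is the raw area under the fraction-flipped curve over 0-4 h after rhamnose induction (AUC4h), with ≥20 reads per time point. It is not background-subtracted; inactive controls average about 0.047.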
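Further: Bxb1 expression induced with 0.2% (w/v) L-rhamnose at OD600 near 0.5, cultures sampled hourly, flipped fraction per protease–substrate barcode pair counted by paired-end Illumina sequencing.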

Variant	area with substrate ENAYFQS	area with substrate ENDYFQS	area with substrate ENFYFQS	area with substrate ENHYFQS	area with substrate ENNYFQS	area with substrate ENQYFQS	area with substrate ENSYFQS	area with substrate ENVYFQS	area with substrate ENEYFQS	area with substrate ENMYFQS	area with substrate ENPYFQS	area with substrate ENRYFQS	area with substrate ENCYFQS	area with substrate ENKYFQS	area with substrate ENWYFQS	area with substrate ENTYFQS	area with substrate ENGYFQS	area with substrate ENYYFQS	area with substrate ENIYFQS
V113E	0.0613	0.057	0.063	0.0499	0.0628	0.0602	0.0652	0.0421											
T114G	0.0581		0.0607	0.0691	0.0574	0.0542	0.0668	0.0861	0.0277	0.0964	0.047	0.0765							
T114S	0.0228		0.0621	0.0603			0.045		0.0706			0.0637	0.063	0.0497	0.06				
T115H	0.0498	0.0624	0.0625	0.0586		0.0515	0.0546			0.0773	0.063	0.0725	0.104	0.0714	0.0125	0.0789			
T115I	0.0618	0.0659	0.0686		0.0659		0.0605	0.0706		0.0673	0.0619	0.0595		0.0668		0.0549	0.0489	0.0561	
Q118E	0.066		0.061		0.0556	0.0677	0.0442	0.0635				0.0525	0.0594			0.0808	0.0615	0.0516	0.0975
T119K	0.0639	0.0468	0.0423		0.0604		0.0571	0.0779	0.0675		0.0581	0.0752		0.061			0.0075	0.045	
S121N	0.0587	0.0578		0.025		0.0671	0.0595	0.0787			0.0721			0.0483	0.0641	0.0582		0.064	
S123L	0.0155	0.0554	0.0632	0.0708	0.0616	0.0423	0.0693	0.0991	0.0645	0.0795	0.0756	0.054				0.0608			0.117
M125F	0.0693	0.0578	0.0551	0.0515		0.0166	0.048	0.112	0.0635				0.059						
V126K	0.0561	0.061		0.0569	0.0711	0.0543	0.071	0.0774	0.0385		0.0519	0.0567	0.0622			0.0579			0.102
S127N	0.0645	0.0637	0.0848	0.0506	0.0618	0.0349		0.0812	0.0588		0.052	0.0603	0.0701	0.0653			0.0633	0.0609	
T129R	0.0698		0.071	0.0735		0.0471	0.0718	0.0778	0.0641				0.0659				0.0708	0.0575	0.0877
S130A	0.05	0.0613	0.0764		0.063	0.06	0.066	0.0793	0.063				0.0593		0.0321			0.0631	
C131G	0.0751			0.0608	0.051				0.0496					0.0296			0.0563	0.0674	
F133S	0.0633	0.0575		0.067		0.0597	0.073		0.0604		0.0662	0.0461	0.0749	0.0625	0.0509	0.0723			
D137M	0.0662	0.0606	0.0617	0.0386	0.0738	0.059	0.062	0.0888	0.0671	0.0776	0.0633	0.0613	0.0715	0.0486		0.0603	0.058	0.0596	
G138E	0.0467			0.0608			0.0842			0.0511						0.0629			
H143Q	0.0543	0.0621	0.0616			0.0487	0.0722	0.0538	0.0663	0.0492	0.0406	0.0627	0.0574			0.0533	0.0539		0.0553
H143S	0.0699	0.0596	0.0582		0.0573			0.063	0.0572			0.0982	0.058	0.0574		0.0724			0.0883
H143V	0.0501	0.0547	0.0545		0.0648	0.0614	0.06	0.0502	0.0689				0.0347	0.0493		0.0568	0.0591	0.0473	0.0792
H143Y	0.0605	0.0687	0.0947	0.0543		0.0606		0.0864	0.049	0.0856	0.0728	0.0834	0.0624	0.0381			0.0796		0.112
W144E	0.0536	0.0651		0.0666	0.0609	0.0651	0.0588	0.0614	0.0516		0.0747			0.072	0.0659	0.0584	0.0901		0.0799
I145A	0.0605	0.055	0.0713		0.0451	0.0599	0.0599	0.107	0.0704			0.0427					0.0536		
Q146E	0.0582	0.0453	0.0801	0.059		0.0619	0.076	0.0834	0.066	0.0789	0.0819	0.0714	0.0571		0.0484			0.0596	
Q146G	0.0566	0.0722			0.07	0.063	0.092		0.0482	0.0782	0.0327			0.0589					0.102
D149E	0.0463	0.0534	0.0565	0.0591		0.0545		0.0578					0.0424		0.0609	0.0567	0.0582		0.0828
D149F	0.0544	0.0365	0.0501	0.0539		0.0767	0.0615	0.0651				0.0658	0.0575	0.0536		0.06		0.0354	0.0827
G150M	0.0606	0.0666		0.0591	0.0579				0.0448	0.0464	0.0547	0.07	0.064	0.0686	0.0606	0.0779		0.0667	0.0486
